In the supplement of paper PMC10338343:
± gives the standard deviation. This is a selection; strong and weak results do not stand in their true shares.

Test system: MIWI (PIWIL1) piRISC loaded with L1MC piRNA (30 nt)
Test: pre-steady-state target cleavage rate (min^-1); MIWI and MILI are mouse PIWI proteins and EfPiwi is from a freshwater sponge; tags in brackets are library labels; higher = faster piRNA-guided slicing of the target
Conditions: guide: L1MC piRNA 5'p-UAACUAAAUACUAUGCAAGCUGUAGGUCCU
In short: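 A transcribed, DNA-blocked target RNA library (0.1 nM) and 1 nM active affinity-purified piRISC bearing one synthetic guide were incubated in HEPES–potassium acetate buffer at 33 °C for 0–8 or 0–960 min, either with or without 500 nM GTSF1 partner protein. Uncleaved targets were sequenced, normalised to depth and to weakly complementary targets, and pooled over three trials, with k3 capped at 0.0001 min^-1. The pre-steady-state cleavage rate was derived with a burst-and-steady-state fit.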

[1] = auxiliary factor: 500 nM mouse GTSF1
[2] = auxiliary factor: none (no GTSF1)

Row | Sequence | pre-steady-state target cleavage rate [1] | pre-steady-state target cleavage rate [2]
1 | UCCUGGAUGUGCUUGCAUAGAAUUUACUUA | 0.0233 ± 0.0074 | 0.00436 ± 0.0029
2 | UCCUGGAUCAGCUUGCAUAGUAUUUACGUUA | 0.736 ± 0.036 | 0.032 ± 0.0083
3 | UCCACCUACAGUUGCAUAGUAUUUAGUUA | 0.641 ± 0.057 | 0.00435 ± 0.0019
4 | UCGACCUACAGCUUGCUUUGUAUUUAGUUA | 0.225 ± 0.019 | 0.00565 ± 0.0016
5 | UCCUGGAUCUGGUUGCAUAGUAUUUAGUUA | 0.199 ± 0.018 | 0.00775 ± 0.0026
6 | UGGACCUACAGCUUGCAUAGUUAUUAGUAA | 0.0811 ± 0.015 | 0.00438 ± 0.002
7 | AGGACCUACAGCUUGCAUAGUAUUUUCUUA | 0.33 ± 0.049 | 0.03 ± 0.0093
8 | UCCACCUACAGCUUGCAUAGAAAUUAGUUA | 0.204 ± 0.026 | 0.00272 ± 0.0024
9 | UCGACCUAGUCCUUGCAUAGUAUUUAGUAA | 0.257 ± 0.033 | 0.00756 ± 0.0017
10 | UGGACGUACAGCUUGCAUAGUAUUUAGAUA | 0.38 ± 0.032 | 0.053 ± 0.011
11 | UCCUGCAUGAGCUUGCAUAGUAUUUAGAAA | 0.315 ± 0.048 | 0.00431 ± 0.0027
12 | UCGACGUACAGCUUGCAUAGUAUUAAGUUA | 0.635 ± 0.039 | 0.0255 ± 0.0049
13 | UCCUGGAACAGCUUGCAUAGUAUUUAGUCUA | 0.0686 ± 0.012 | 0.0111 ± 0.0022
14 | UCCUGGUACAGCUUGCAUAGUAUUUACUAA | 0.0924 ± 0.023 | 0.00303 ± 0.0025
15 | UCCUGGAUGUGCUUGCAUAGUACUUAGUUA | 0.17 ± 0.019 | 0.0283 ± 0.0074
16 | UGCACCUACAGCUUGCAUAGUAAUUAGUUA | 0.945 ± 0.091 | 0.0309 ± 0.0082
17 | UCCUGGUACAGGUUGCAUAGUAUUAAGUUA | 0.638 ± 0.12 | 0.00789 ± 0.0027
18 | UCGACCUACAGCUUGCAAAGUAUUUAGAAA | 0.396 ± 0.035 | 0.00573 ± 0.0027
19 | UCGACCUACAGCUUGCAUAGUGAUUUAGUUA | 0.0988 ± 0.015 | 0.00635 ± 0.0024
20 | UCCUCCUACAGCUUGCAUAGUAUCUAGUUA | 0.492 ± 0.029 | 0.0356 ± 0.0051

Row | Sequence | pre-steady-state target cleavage rate [1] | pre-steady-state target cleavage rate [2]
21 | UCCUCCUUGAGCUUGCAUAGUAUUUACAAA | 0.189 ± 0.034 | 0.00306 ± 0.0019
22 | UGGACCUACAGCAUGCAUUGUAUUUAGUUA | 0.858 ± 0.058 | 0.0141 ± 0.0037
23 | UCCUGGAUGUGCUUGCAUUGUAUUUAGUUA | 0.0683 ± 0.01 | 0.016 ± 0.0042
24 | UCCUGGUACAGCUUGCAUAGUAUUAUGUUA | 0.209 ± 0.027 | 0.0187 ± 0.0041
25 | UCCUGGAACAGCUUGCCAUAGUAUUUAGUUA | 0.156 ± 0.016 | 0.0036 ± 0.0034
26 | UCGACCUACAGCUUGCAUACUAUAUAGUUA | 0.194 ± 0.017 | 0.0131 ± 0.003
27 | UCCACCUACAGCUUGCAUAGUAUUUAGUCA | 0.565 ± 0.052 | 0.0355 ± 0.01
28 | UCCUGGAUGUGCUUACAUAGUAUUUAGUUA | 0.3 ± 0.022 | 0.013 ± 0.0032
29 | UCCUGCUACAGCUUGCAUAGAAUUUAGAUA | 0.273 ± 0.042 | 0.00514 ± 0.0022
30 | UGGACCUACAGCUUGCAUUGUAUUUUGUUA | 0.639 ± 0.045 | 0.0172 ± 0.0052
31 | UCCUCCUACUGCUUGCAUAGUUUUUAGUUA | 0.337 ± 0.016 | 0.0191 ± 0.0029
32 | UCCUGCUACACGUUGCAUAGUAUUUAGUUA | 1.13 ± 0.053 | 0.0124 ± 0.0035
33 | UCCUGCUAGAGCUUGCAUAGUAUUUAGUAA | 0.271 ± 0.031 | 0.015 ± 0.0036
34 | UCCACCUACAGCUUGCAUAGUAUCUUAGUUA | 0.709 ± 0.057 | 0.0225 ± 0.005
35 | AGGACCUACACCUUGCAUAGUAUUUAGAUA | 0.408 ± 0.043 | 0.0455 ± 0.01
36 | UCCUCCUACAGCUUGGAUAGUAUUAAGUUA | 0.327 ± 0.026 | 0.0118 ± 0.0022
37 | UCCUGGUACAGCUUGCAUAGAAUUUACUUA | 0.0682 ± 0.02 | 0.00381 ± 0.0032
38 | UCCUGGUACAGCUUGCAUAGAAUUUAGUUA | 0.452 ± 0.083 | 0.0136 ± 0.0044
39 | UCCUGGAUGACCUUGCAUAGAAUUUAGUUA | 0.0208 ± 0.0075 | 0.00293 ± 0.0023
40 | AGGACCUACAGCAUGCAUAGUAUUUAGUAA | 0.986 ± 0.075 | 0.0556 ± 0.014

Row | Sequence | pre-steady-state target cleavage rate [1] | pre-steady-state target cleavage rate [2]
41 | UCCUCCUUGUGCUUGCAUAGUAUUUAGAAA | 0.0893 ± 0.015 | 0.00272 ± 0.0017
42 | UCGACCUACAGCUUGCAUACAAUUUAGUUA | 0.0219 ± 0.0076 | 0.00334 ± 0.0025
43 | UGGACCUUCAGCUUGCAUAGUAUUAAGUUA | 0.846 ± 0.045 | 0.0295 ± 0.0069
44 | AGGAGCUACAGCUUGCAUAGUAAUUAGUUA | 0.892 ± 0.054 | 0.0361 ± 0.0086
45 | UCCUGGUACAGCUUGCUUAGUAUAUAGUUA | 0.361 ± 0.046 | 0.0202 ± 0.0066
46 | UCCUGGAUGAGCUUGCAUAGUAUUUCAGUUA | 0.359 ± 0.051 | 0.0143 ± 0.0037
47 | UCCUGGAUGUCCUUGCAAGUAUUUAGUUA | 0.00413 ± 0.0034 | 0.00275 ± 0.0026
48 | AGGAACCUACAGCUUGCAUAGUAUUUAGUUA | 1.23 ± 0.059 | 0.0809 ± 0.014
49 | UCCUCCUACUGCUUGCAUUGUAUUUAGUUA | 0.848 ± 0.025 | 0.0282 ± 0.0065
50 | UCCUGCAACAGCUUGCAUAGUAUUAAGUUA | 0.732 ± 0.046 | 0.0229 ± 0.0047
51 | UCCUGGAACAGCUUGCAAAGUAUUUAGUUA | 1.09 ± 0.039 | 0.044 ± 0.011
52 | UCCUGGAUGUGCUUGCAUACUAUAUAGUUA | 0.00748 ± 0.0044 | 0.00305 ± 0.0026
53 | UCCUGGAACAGCUUGCGUAGUAUUUAGUUA | 1.43 ± 0.087 | 0.0397 ± 0.0099
54 | UGGACCUACAGCUUGCAUAGUAAUUAGUUA | 0.977 ± 0.059 | 0.0268 ± 0.0066
55 | AGGACCUACAGCUUGCAUAGAAAUUAGUUA | 0.254 ± 0.034 | 0.00542 ± 0.0028
56 | UCCUGGAUGAGCUUGCAUACUAUUUAGUAA | 0.0528 ± 0.012 | 0.018 ± 0.0049
57 | UCCUGGUACAGCAUGCAUAGUAUUUAGAAA | 0.201 ± 0.035 | 0.00336 ± 0.0027
58 | UCGACCUACAGCUUGCAUACUAUUAAGUUA | 0.178 ± 0.018 | 0.0118 ± 0.0021
59 | UCCACCUAGAGCUUGCAUAGUAUUUAGUAA | 0.438 ± 0.066 | 0.0167 ± 0.0028
60 | UCCUGCUACAGCUUGCAUAGUAUUUACUUA | 0.355 ± 0.037 | 0.0207 ± 0.0039
